The test system of this test is HSV.

Molecules are shown by their SMILES. Peptide text beside a SMILES is read from it. * marks the point of attachment. Cbz = O=C(OCc1ccccc1)*; CHN2 = [N-]=[N+]=C*

Among the data in US5432264A (priority 1987, dated 1995) are number of plaques values, retold here.

For the molecule `CC(C)C[C@H](NC(=O)OCc1ccccc1)C(=O)N[C@H](C(=O)NCC(=O)C=[N+]=[N-])C(C)C` [Z-LVG-CHN2, N-benzyloxycarbonyl-leucyl-valyl-glycine diazomethyl ketone, reference compound] (Cbz-Leu-Val-Gly-CHN2), the number of plaques result is given as “not reduced”.
